Measurements: the supplement of paper PMC10369915
The list shows a part of the results. No stated cut-off is given here; in the data, active = 3.2 or more and inactive = the rest. The signal is at background level for most entries.

B1: VAV3_Y141 (peptide)
chain: NDEDIYKGLPD
B2: VAV3_Y294 (peptide)
chain: ISSLDYISKTK
B3: VAV3_Y842_S840Y (peptide)
chain: WFPYTYVEEDE
B4: VHL_Y112 (peptide)
chain: RRIHSYRGHLW
B5: VHL_Y112_H110Y_YF (peptide)
chain: RRIFSYRGHLW
B6: VHL_Y112_H115Q (peptide)
chain: RRIHSYRGQLW
B7: VHL_Y112_H115Y (peptide)
chain: RRIHSYRGYLW
B8: VHL_Y112_H115Y_YF (peptide)
chain: RRIHSYRGFLW
B9: VHL_Y112_L116V (peptide)
chain: RRIHSYRGHVW
B10: VHL_Y112_R107P (peptide)
chain: PRIHSYRGHLW
B11: VHL_Y112_S111C (peptide)
chain: RRIHCYRGHLW
B12: VHL_Y112_S111N (peptide)
chain: RRIHNYRGHLW
B13: VHL_Y112_S111R (peptide)
chain: RRIHRYRGHLW
B14: VHL_Y112_W117C (peptide)
chain: RRIHSYRGHLC
B15: VHL_Y112_Y112H (peptide)
chain: RRIHSHRGHLW
B16: VHL_Y112_Y112N (peptide)
chain: RRIHSNRGHLW
B17: VHL_Y175 (peptide)
chain: VKPENYRRLDI
B18: VHL_Y175_R176W (peptide)
chain: VKPENYWRLDI
B19: VHL_Y175_V170D (peptide)
chain: DKPENYRRLDI

Molecular target: SHP2 C-SH2 domain E139D
Assay: enrichment score (SH2-bound / input frequency) (ratio); bacterial display of known human phosphotyrosine sites (pTyr-Var adds point mutants) read by sequencing; higher = stronger binding; tyrosines were phosphorylated by kinases first
Details: peptide library: pTyr-Var
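Further: displayed peptides selected on beads carrying the immobilized SH2 domain, with library peptides lacking any tyrosine serving as negative controls.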

Enrichment score, inactive:
B1 0.429, B2 0.618, B3 1.25, B4 0.294, B5 0.319, B6 0.232, B7 0.284, B8 0.29, B9 0.297, B10 2.99, B11 0.499, B12 0.21, B13 0.236, B14 0.237, B15 0.3, B16 0.321, B17 0.666, B18 1, B19 0.463

Molecular target: SHP2 C-SH2 domain wild-type
Assay: as above
Details: peptide library: pTyr-Var

Enrichment score, inactive:
B1 0.641, B2 0.469, B3 1.33, B4 0.336, B5 0.229, B6 0.277, B7 0.205, B8 0.303, B9 0.367, B10 2.72, B11 0.248, B12 0.206, B13 0.221, B14 0.267, B15 0.222, B16 0.356, B17 0.561, B18 0.957, B19 0.408

Molecular target: SHP2 N-SH2 domain L43F
Assay: as above
Details: peptide library: pTyr-Var

Enrichment score, inactive:
B1 0.497, B2 0.65, B3 1.82, B4 0.288, B5 0.386, B6 0.381, B7 0.214, B8 0.3, B9 0.175, B10 2.8, B11 0.372, B12 0.245, B13 0.25, B14 0.241, B15 0.325, B16 0.329, B17 0.566, B18 0.822, B19 0.436

Molecular target: SHP2 N-SH2 domain T42A
Assay: as above
Details: peptide library: pTyr-Var

Enrichment score, inactive:
B1 0.417, B2 0.74, B3 1.43, B4 0.325, B5 0.272, B6 0.168, B7 0.223, B8 0.256, B9 0.276, B10 2.42, B11 0.496, B12 0.35, B13 0.248, B14 0.297, B15 0.437, B16 0.315, B17 0.466, B18 1.02, B19 0.327

Molecular target: SHP2 N-SH2 domain T52S
Assay: as above
Details: peptide library: pTyr-Var

Enrichment score, inactive:
B1 0.54, B2 0.658, B3 2.38, B4 0.179, B5 0.219, B6 0.185, B7 0.211, B8 0.323, B9 0.164, B10 2.25, B11 0.333, B12 0.147, B13 0.101, B14 0.357, B15 0.262, B16 0.276, B17 0.617, B18 1.07, B19 0.611

Molecular target: SHP2 N-SH2 domain wild-type
Assay: as above
Details: peptide library: pTyr-Var

Enrichment score, inactive:
B1 0.69, B2 0.725, B3 1.59, B4 0.212, B5 0.236, B6 0.216, B7 0.197, B8 0.199, B9 0.332, B10 2.82, B11 0.523, B12 0.283, B13 0.185, B14 0.274, B15 0.198, B16 0.357, B17 0.537, B18 1.19, B19 0.354
